# Test results reported in the supplement of paper PMC8728848.
# The other results are listed elsewhere or left out.
# What was measured:
# Assay in all cases: glycan array binding signal (z-score within array); higher = stronger binding
# Details in all cases: glycan notation: IUPAC condensed, linker removed
# [1] = biological target: Fuc(a1-2)Gal(b1-4)GlcNAc(b1-2)Man(a1-3)[Fuc(a1-2)Gal(b1-4)GlcNAc(b1-2)Man(a1-6)]Man(b1-4)GlcNAc(b1-4)[Fuc(a1-6)]GlcNAc
# Summary of the method: (§1)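 The binding signal is a Z-score computed within each array and averaged over linkers. Arrays of the same protein sequence at different concentrations or buffers were also averaged together. Data originate from 3228 arrays in the Consortium for Functional Glycomics database, kept only where the protein sequence was available.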
# [2] = biological target: Fuc(a1-2)Gal(b1-4)GlcNAc(b1-2)[Fuc(a1-2)Gal(b1-4)GlcNAc(b1-4)]Man(a1-3)[Fuc(a1-2)Gal(b1-4)GlcNAc(b1-2)Man(a1-6)]Man(b1-4)GlcNAc(b1-4)GlcNAc
# Summary of the method: as §1
# [3] = biological target: Fuc(a1-2)Gal(b1-4)GlcNAc(b1-3)Gal(b1-4)GlcNAc
# Summary of the method: as §1
# [4] = biological target: Fuc(a1-2)Gal(b1-4)GlcNAc(b1-3)Gal(b1-4)GlcNAc(b1-2)Man(a1-3)[Fuc(a1-2)Gal(b1-4)GlcNAc(b1-3)Gal(b1-4)GlcNAc(b1-2)Man(a1-6)]Man(b1-4)GlcNAc(b1-4)GlcNAc
# Summary of the method: as §1
# [5] = biological target: Fuc(a1-2)Gal(b1-4)GlcNAc(b1-3)Gal(b1-4)GlcNAc(b1-3)Gal(b1-4)GlcNAc
# Summary of the method: as §1
# [6] = biological target: Fuc(a1-2)Gal(b1-4)GlcNAc(b1-3)GalNAc
# Summary of the method: as §1
# [7] = biological target: Fuc(a1-2)Gal(b1-4)GlcNAc(b1-3)[Fuc(a1-2)Gal(b1-4)GlcNAc(b1-6)]GalNAc
# Summary of the method: as §1
# [8] = biological target: Fuc(a1-2)Gal(b1-4)GlcNAc(b1-3)[Fuc(a1-3)[Gal(b1-4)]GlcNAc(b1-6)]Gal(b1-4)Glc
# Summary of the method: as §1
# [9] = biological target: Fuc(a1-2)Gal(b1-4)GlcNAc(b1-6)GalNAc
# Summary of the method: as §1
# [10] = biological target: Fuc(a1-2)Gal(b1-4)GlcNAc6S
# Summary of the method: as §1
# [11] = biological target: Fuc(a1-2)Gal(b1-4)[Fuc(a1-3)]GlcNAc
# Summary of the method: as §1
# [12] = biological target: Fuc(a1-2)Gal(b1-4)[Fuc(a1-3)]GlcNAc(b1-2)Man(a1-3)[Fuc(a1-2)Gal(b1-4)[Fuc(a1-3)]GlcNAc(b1-2)Man(a1-6)]Man(b1-4)GlcNAc(b1-4)GlcNAc
# Summary of the method: as §1
# [13] = biological target: Fuc(a1-2)Gal(b1-4)[Fuc(a1-3)]GlcNAc(b1-2)Man(a1-3)[Fuc(a1-2)Gal(b1-4)[Fuc(a1-3)]GlcNAc(b1-2)Man(a1-6)]Man(b1-4)GlcNAc(b1-4)[Fuc(a1-6)]GlcNAc
# Summary of the method: as §1
# [14] = biological target: Fuc(a1-2)Gal(b1-4)[Fuc(a1-3)]GlcNAc(b1-2)Man(a1-6)[Fuc(a1-2)Gal(b1-4)[Fuc(a1-3)]GlcNAc(b1-2)Man(a1-3)]Man(b1-4)GlcNAc(b1-4)[Fuc(a1-6)]GlcNAc
# Summary of the method: as §1
# [15] = biological target: Fuc(a1-2)Gal(b1-4)[Fuc(a1-3)]GlcNAc(b1-2)[Fuc(a1-2)Gal(b1-4)[Fuc(a1-3)]GlcNAc(b1-4)]Man(a1-3)[Fuc(a1-2)Gal(b1-4)[Fuc(a1-3)]GlcNAc(b1-2)Man(a1-6)]Man(b1-4)GlcNAc(b1-4)GlcNAc
# Summary of the method: as §1
# [16] = biological target: Fuc(a1-2)Gal(b1-4)[Fuc(a1-3)]GlcNAc(b1-3)Gal(b1-4)[Fuc(a1-3)]GlcNAc
# Summary of the method: as §1
# [17] = biological target: Fuc(a1-2)Gal(b1-4)[Fuc(a1-3)]GlcNAc(b1-3)Gal(b1-4)[Fuc(a1-3)]GlcNAc(b1-3)Gal(b1-4)[Fuc(a1-3)]GlcNAc
# Summary of the method: as §1
# [18] = biological target: Fuc(a1-2)Gal(b1-4)[Fuc(a1-3)]GlcNAc(b1-3)GalNAc
# Summary of the method: as §1
# [19] = biological target: Fuc(a1-2)Gal(b1-4)[Fuc(a1-3)]GlcNAc(b1-3)[Neu5Ac(a2-6)Gal(b1-4)GlcNAc(b1-6)]Gal(b1-4)Glc
# Summary of the method: as §1
# [20] = biological target: Fuc(a1-2)Gal3S(b1-4)GlcNAc
# Summary of the method: as §1
# [21] = biological target: Fuc(a1-2)Gal6S(b1-3)GlcNAc
# Summary of the method: as §1
# [22] = biological target: Fuc(a1-2)Gal6S(b1-3)GlcNAc6S
# Summary of the method: as §1
# [23] = biological target: Fuc(a1-2)Gal6S(b1-4)Glc
# Summary of the method: as §1
# [24] = biological target: Fuc(a1-2)Gal6S(b1-4)Glc6S
# Summary of the method: as §1
# [25] = biological target: Fuc(a1-2)Gal6S(b1-4)GlcNAc
# Summary of the method: as §1
# [26] = biological target: Fuc(a1-2)[Gal(a1-3)]Gal
# Summary of the method: as §1
# [27] = biological target: Fuc(a1-2)[Gal(a1-3)]Gal(b1-3)GalNAc
# Summary of the method: as §1
# [28] = biological target: Fuc(a1-2)[Gal(a1-3)]Gal(b1-3)GalNAc(b1-3)Gal(a1-4)Gal(b1-4)Glc
# Summary of the method: as §1
# [29] = biological target: Fuc(a1-2)[Gal(a1-3)]Gal(b1-3)GlcNAc
# Summary of the method: as §1
# [30] = biological target: Fuc(a1-2)[Gal(a1-3)]Gal(b1-3)GlcNAc(b1-2)Man(a1-3)[Fuc(a1-2)[Gal(a1-3)]Gal(b1-3)GlcNAc(b1-2)Man(a1-6)]Man(b1-4)GlcNAc(b1-4)GlcNAc
# Summary of the method: as §1
binder,measurement,setting,value
OrysaEULS2 (Oryza sativa) (protein) MVYCRANPNYAMTARNGAVVLAPANPKDEYQHWIKDMRWSTSIKDEEGYPAFALVNKATGQAIKHSLGQSHPVRLVPYNPEVMDESVLWTESRDVGNGFRCIRMVNNIYLNFDAFHGDKYHGGVRDGTDIVLWKWCEGDNQRWKIQPYYILEQKLISEEDLNSAVDHHHHHH,glycan array binding signal (z-score),[1],-0.104
same,glycan array binding signal (z-score),[2],-0.145
same,glycan array binding signal (z-score),[3],-0.19
same,glycan array binding signal (z-score),[4],0.507
same,glycan array binding signal (z-score),[5],-0.186
same,glycan array binding signal (z-score),[6],-0.182
same,glycan array binding signal (z-score),[7],-0.198
same,glycan array binding signal (z-score),[8],-0.276
same,glycan array binding signal (z-score),[9],-0.163
same,glycan array binding signal (z-score),[10],-0.181
same,glycan array binding signal (z-score),[11],-0.191
same,glycan array binding signal (z-score),[12],-0.159
same,glycan array binding signal (z-score),[13],-0.119
same,glycan array binding signal (z-score),[14],-0.082
same,glycan array binding signal (z-score),[15],-0.142
same,glycan array binding signal (z-score),[16],-0.2
same,glycan array binding signal (z-score),[17],-0.194
same,glycan array binding signal (z-score),[18],-0.025
same,glycan array binding signal (z-score),[19],-0.211
same,glycan array binding signal (z-score),[20],-0.255
same,glycan array binding signal (z-score),[21],-0.206
same,glycan array binding signal (z-score),[22],-0.141
same,glycan array binding signal (z-score),[23],-0.187
same,glycan array binding signal (z-score),[24],-0.166
same,glycan array binding signal (z-score),[25],-0.173
same,glycan array binding signal (z-score),[26],-0.205
same,glycan array binding signal (z-score),[27],-0.185
same,glycan array binding signal (z-score),[28],-0.248
same,glycan array binding signal (z-score),[29],-0.108
same,glycan array binding signal (z-score),[30],-0.081
